The values that follow come from ChEMBL document CHEMBL4888484, “Replenishing the malaria drug discovery pipeline: Screening and hit evaluation of the MMV Hit Generation Library 1 (HGL1) against asexual blood stage Plasmodium falciparum ,using a nano luciferase reporter read-out” (2022).

About 540 (0.36%) of roughly 150,000 compounds showed an effect of 50% or more. The list shows a part of the results.

This test relates to Plasmodium falciparum. Kind of test: Primary screen in NF54 nanoGlo assay, in single point, at 2uM, 72h; a lower Z score goes with more inhibition. Format: functional, Erythrocyte. Conditions: timepoint 72 hour.
Regarding `CCOCC1CCN(CCc2ccc3c(c2)CCO3)CC1`, the “% Inhibition” value is given as -4% and the Z score was 0.71.
The like results for `O=S(=O)(c1cccnc1)N1CC(c2cccnc2)C1` were, in that order, -7% and 1.37.
The matching figures for `CCS(=O)(=O)N1CC[C@H](Oc2nc(C)cc(C)n2)C1`: -4% and 0.8.
The matching figures for `CCCS(=O)(=O)N1CCCC(C(=O)N2CC(C)OC(CO)C2)C1` (stereo not given): 1% and -0.11.
With `O=C(c1ccn2nnnc2c1)N(Cc1ccsc1)C1CCCCC1`, the “% Inhibition” value amounted to 4% and the Z score is -0.54.
The like results for `COCCN1C[C@@H](c2nc(C3CCOCC3)n[nH]2)CCC1=O` were, in that order, -5% and 0.81.
The like results for `Cc1nn(C)c(C(=O)NCC[C@H]2CCCOC2)c1Cl` were, in that order, -9% and 1.46.
The matching figures for `O=C1CCC(=O)N1c1nc2n(n1)[C@H](c1ccccc1)C=C(c1ccccc1)N2`: 3% and -0.36.
As for `CC(C)(CNC(=O)c1ccc2nc[nH]c2n1)c1cccc(Cl)c1F`, the “% Inhibition” value is listed as -2% and the Z score was found to be 0.23.
The matching figures for `COCCc1ncc(-c2nc3cc(F)ccc3cc2-c2ccccc2)cn1`: 1% and -0.12.
The matching figures for `COc1ccc(C(OC[C@H]2O[C@@H]3[C@@H](Oc4nc(=O)ccn43)[C@@H]2O)(c2ccccc2)c2ccc(OC)cc2)cc1`: 3% and -0.33.
The like results for `CN1CCC(N(CCc2ccccc2)C(=O)c2cnn(C)c2)CC1` were, in that order, -15% and 1.95.
As for `Cc1cc(Cl)c2c(c1)[C@]1(C(=O)N2)[C@@H]2C(=O)N(c3ccc4c(c3)OCO4)C(=O)[C@@H]2[C@@H]2CCCN21`, the “% Inhibition” value amounted to 7% and the Z score is on record as -0.88.
The matching figures for `CC(C)Cc1nc(Cn2nnnc2N)n(-c2ccccn2)n1`: -11% and 1.05.
The like results for `CC(C)(C)OC(=O)C1CC(O)C(NC(=O)c2ccc(O)c(F)c2)C1` (stereo not given) were, in that order, -7% and 0.91.
The matching figures for `CS(=O)(=O)N[C@H]1C[C@H]2C(=O)Nc3ccc(-c4ccc(F)cc4F)cc3C(=O)N2C1`: 33% and -3.71.
Turning to `COCCN1CCN(Cc2nc(NCCc3ccccc3OC)c3ccccc3n2)CC1`, the “% Inhibition” value is reported as -1% and the Z score came out at 0.11.
The like results for `CCCOc1cccc(CCN[C@H]2CCCc3c2cnn3C)c1` were, in that order, -9% and 0.88.
The like results for `CCc1onc(C)c1NC(=O)C(=O)NCCC1CCC1` were, in that order, -12% and 1.93.
The matching figures for `CN(Cc1cc2n(n1)CCCNC2)Cc1noc2c1CCCC2`: -2% and 0.23.
`CC[C@H](C)[C@@H](C(=O)Nc1ccc(Cl)cn1)n1cnnn1`: the “% Inhibition” value is given as -6% and the Z score is 0.77.
The like results for `COc1ccnc(NCC2(c3ccccc3OC)CCOCC2)n1` were, in that order, -5% and 0.49.
The matching figures for `O=C(NC[C@H]1CCOC1)c1cccc(S(=O)(=O)N2CCCCCCC2)c1`: -19% and 2.09.
The matching figures for `CN1CCC[C@H](C(=O)NCc2ccc(Cl)cc2Cl)C1`: -16% and 1.37.
As for `CN[C@H]1CCCc2c(OC)ccc(Cl)c21`, the “% Inhibition” value was -1% and the Z score was 0.15.
For the compound `CCCS(=O)(=O)N1CCC[C@H](C(=O)Nc2ccc(OC)c(N3CCCC3=O)c2)C1`, the “% Inhibition” value is on record as -7% and the Z score came to 1.28.
`COCC(C)NCC(C)c1cccs1` (stereo not given): the “% Inhibition” value is -5% and the Z score was 0.71.
The matching figures for `CN1CCN(c2ccccc2NC(=O)c2cccc3c(Br)cccc23)CC1`: 6% and -0.77.
For `CC[C@@H](CC(F)(F)F)NC(=O)c1nc(C)c(C)[nH]c1=O`, the “% Inhibition” value was -2% and the Z score amounted to 0.36.
With `Cc1ccc(CN2CCN(Cc3ccc(C)o3)[C@@H]3CS(=O)(=O)C[C@@H]32)cc1`, the “% Inhibition” value was -9% and the Z score turned out to be 1.79.
The matching figures for `O=C1N[C@@](CCCc2ccccc2)(C2CCNCC2)C(=O)N1Cc1ccncc1`: 1% and -0.2.
The like results for `Cc1ncsc1CN[C@@H](C(N)=O)c1cccc(Br)c1` were, in that order, -11% and 1.16.
The like results for `COc1ccccc1C1(CNC(=O)C[C@@H](CC(=O)O)c2cccs2)CCOCC1` were, in that order, -3% and 0.43.
Take `COCC1(c2noc(-c3conc3C3CC3)n2)CCOCC1`: the “% Inhibition” value is on record as -1% and the Z score turned out to be 0.16.
Regarding `CC(C)[C@H](NC(=O)OC(C)(C)C)C(=O)NC[C@H]1CC[C@H](C(=O)N[C@H](C)C(=O)O)CC1`, the “% Inhibition” value amounted to 0% and the Z score was found to be 0.06.
The like results for `O=C(NCc1ccncc1)[C@]1(F)CCCN(Cc2c[nH]nc2-c2ccc(F)cc2)C1` were, in that order, -25% and 2.23.
The like results for `CN(C(=O)CNC(=O)c1ccccc1)c1ccccc1` were, in that order, 30% and -3.91.
The matching figures for `Cc1cc(=O)n2nc(-c3ccc(Cl)cc3)nc2n1CC(=O)N1CCCCCC1`: -3% and 0.41.
For `CC(C)[C@@H](C(N)=O)n1cc(-c2nc3ccccc3n2C(C)C)nn1`, the “% Inhibition” value was -6% and the Z score stood at 0.94.
The matching figures for `CCOc1ccc2ncc(C#N)c(N3CCC(C(=O)N4CCCC4)CC3)c2c1`: 8% and -0.94.
The like results for `Cc1nnc(-c2ccccc2-c2cc(NCC(=O)O)nc3[nH]ccc23)s1` were, in that order, 8% and -1.59.
The matching figures for `O=C(NCCN1C(=O)COC1=O)c1ccncc1`: 14% and -1.84.
For `Nc1ncccc1CN1CCC(O)(c2cccc(C(F)(F)F)c2)CC1`, the “% Inhibition” value is recorded as -11% and the Z score worked out at 1.56.
The matching figures for `CN(C(=O)c1cc(COc2c(F)cccc2F)on1)C(C1CC1)C1CC1`: -14% and 1.48.
In the case of `Cn1cnc(NC(=O)C(C)(C)C(F)F)n1`, the “% Inhibition” value is recorded as -7% and the Z score amounted to 1.44.
Take `O=C(CCC1CCCC1)N1CCN(Cc2ccccc2)c2ncccc21`: the “% Inhibition” value is -9% and the Z score is reported as 1.07.
Consider `CCc1nnc2c(NC(=O)Cc3ccsc3)cccn12`, for which the “% Inhibition” value is listed as -8% and the Z score is recorded as 1.3.
The matching figures for `CC[C@H](C)C(=O)N1CC(OC(=O)Nc2cccc(F)c2)C1`: -8% and 1.12.
The matching figures for `Cc1cc(C)c(C#N)c(N2CCC[C@H](CNC(=O)c3sc(C)nc3C)C2)n1`: -6% and 0.89.
The like results for `O=C(N[C@H](Cc1ccccc1)C(=O)Nc1ccccc1)c1cc[nH]n1` were, in that order, 9% and -0.94.
Take `Cc1nscc1C(=O)Nc1cnoc1C(C)C`: the “% Inhibition” value was 3% and the Z score was -0.62.
The matching figures for `C[C@H]1COCCN1CCN(Cc1ccccc1)CC1(O)CCOCC1`: 1% and -0.16.
The like results for `CCn1cc(CN(C)Cc2ccc(CN3CCCC3)s2)c(C)n1` were, in that order, -2% and 0.33.
The like results for `O=C(NCC1CC2CCC1C2)C1CC12CCS(=O)(=O)CC2` (stereo not given) were, in that order, -7% and 1.42.
As for `CC1CCN(C(=O)c2c(-c3cccnc3)noc2[C@H](C)O)CC1`, the “% Inhibition” value is reported as -5% and the Z score amounted to 0.65.
On to `Cc1nc(C(C)C)sc1C(=O)N1C[C@H]2CCC[C@@]2(CO)C1`, for which the “% Inhibition” value is on record as -5% and the Z score worked out at 0.92.
The matching figures for `COCCOCC(=O)N(C1CC1)C1(C#N)CCC1`: -14% and 2.54.
The like results for `Cc1ccc(C)c(CNc2cc([C@H]3CCOC3)nc(N)n2)c1` were, in that order, -14% and 1.54.
The matching figures for `CCc1nn2c(c1-c1ccc(OC)c(S(=O)(=O)NCc3cccc(C)c3)c1)NC(=O)CCC2=O`: -1% and 0.13.
As to `CNC(=O)[C@H]1CCN(S(=O)(=O)N2CCc3ccccc3C2)C1`, the “% Inhibition” value is given as -2% and the Z score was found to be 0.29.
With `CCN(CC)C(=O)[C@@H](NC(=O)c1cccs1)C1CCN(C(=O)NC(C)C)CC1`, the “% Inhibition” value is -6% and the Z score was found to be 0.75.
The matching figures for `CCS(=O)(=O)NCCN(C)c1ccccc1N(C)C`: 1% and -0.12.
For `CNC1CCN(S(=O)(=O)c2sc(C)nc2C)CC1`, the “% Inhibition” value is -7% and the Z score is given as 0.96.
The matching figures for `CCO[C@@H](C)c1nc(-c2ccncc2)nn1-c1cc(C)ccn1`: -8% and 1.56.
The like results for `Cc1nc(C(=O)N(Cc2cccc(OCc3cccs3)c2)[C@H]2CCCCNC2=O)cs1` were, in that order, 8% and -0.97.
The matching figures for `NC1CC2CC(C(=O)N3CCc4c(cccc4C(F)(F)F)C3)CC12` (stereo not given): 0% and 0.04.
In the case of `O=C1[C@@H](N2CCOCC2)CCCN1Cc1cccc(Cl)c1`, the “% Inhibition” value is on record as 3% and the Z score is on record as -0.36.
Regarding `CCc1nc(CN(C)Cc2cc3n(n2)CCN(C(=O)N(C)C)C3)no1`, the “% Inhibition” value is recorded as -1% and the Z score is 0.1.
The like results for `CCc1ccccc1NC(=O)C1CCN(S(=O)(=O)c2ccc3c(c2)nc(C)n3C2CCCC2)CC1` were, in that order, -8% and 1.11.
`CC(C)n1nccc1NC(=O)NC[C@@H](CO)Cc1cccs1`: the “% Inhibition” value was -1% and the Z score turned out to be 0.15.
For `C[C@@H](Cn1cc(Br)cn1)Nc1ccc(CC#N)cc1`, the “% Inhibition” value was -14% and the Z score stood at 1.16.
As for `C#CC1CCN(C(=O)OC(C)(C)C)C(C)C1` (stereo not given), the “% Inhibition” value is listed as 5% and the Z score is on record as -0.56.
The like results for `COc1ncccc1C(=O)N(C1CCCC1)[C@H]1CCS(=O)(=O)C1` were, in that order, 0% and 0.03.
The like results for `O=C(Nc1cccc2c1CCO2)N1CCC(O)(C2CCC2)CC1` were, in that order, -16% and 3.1.
The matching figures for `COCCC1(CNC(=O)NCc2c(C)n[nH]c2C)CC1`: -11% and 2.05.
As to `O=C(CCC=Cc1ccccc1)N1CCC(OC2CCCC2)CC1`, the “% Inhibition” value is reported as -18% and the Z score was found to be 1.89.
Take `COc1ccc2c(c1)N=C(c1ccc(F)cc1)N=C(c1cccs1)N2`: the “% Inhibition” value is -7% and the Z score worked out at 0.76.
The matching figures for `O=C(CCC1CCCC1)NC1CC(O)C(CO)C1` (stereo not given): -9% and 1.38.
The matching figures for `CC(C)N(CC(=O)N(CCc1c[nH]c2ccccc12)Cc1ccccc1)S(=O)(=O)c1ccc(F)cc1`: 3% and -0.39.
The matching figures for `Cc1cccc(Cl)c1NC(=O)N(CCO)CC(F)F`: -15% and 2.44.
On to `CC(C)CN(Cc1csc(COc2ccc(Cl)cc2)n1)C(=O)c1cccs1`, for which the “% Inhibition” value was -8% and the Z score came to 1.15.
The matching figures for `CN1C(=O)[C@](C)(C(=O)Nc2ccc(Cl)cc2F)Oc2cccnc21`: 0% and 0.02.
With `CS(=O)(=O)C[C@H](NCc1nc2c(s1)CCC2)c1ccccc1`, the “% Inhibition” value is 34% and the Z score was -4.64.
The like results for `CCCc1nccn1Cc1noc(C(C)(C)C)n1` were, in that order, -12% and 1.55.
Take `CCCN(CCN1CCN(CC)CC1)C(=O)c1ccn2ccnc2c1`: the “% Inhibition” value is on record as -35% and the Z score is 4.11.
